“And” between values parts separate entries of the source, which are not always exact repeats. Identical values can stand only once.
Details: Homo sapiens; pH 7.4; 25 °C; GdnHCl; Fluorescence; Phosphate buffer; transition: 2

Q: With “Apolipoprotein A-I wild type (no sequence given)” as the substance, how does the denaturant m value read?
A: Its denaturant m value is 3 kcal/mol/M and 3.2 kcal/mol/M.

Q: What about the “denaturant midpoint (higher = more stable)” value of the same substance?
A: The value was 1.05 M.

Q: And the unfolding free energy?
A: Its unfolding free energy is 3.1 kcal/mol and 3.4 kcal/mol.
